# Data as given in the RNAGym collection of RNA variant scans (doi:10.7554/elife.90254).
# The source gives no read counts; variants with many changes may rest on few reads.
# B1: LINE1-mini (parent)
# chain: GGCAGAGCUCAACACAGCGUGGCAAAGUGGCUGUGGCUAGACUGCC
# Variants of: B1
# Experiment: self-cleavage, relative activity (ratio to wild type); higher = more cleavage; in vitro, sequencing; the parent is a self-cleaving ribozyme
row,Variant,self-cleavage
1,GGCAGAGCUCAACACAGCGUCGCAAAGAUGCUGUCGCUAGACUGCC,0.03
2,GGCAAAGCUCAACACAGAGUGGCAAAGUGGCUAUGGCUAGACUGCC,0.01
3,AGCAGAGCUAAACACAGCAUGGCAAAGAGGCUGGGGCUACACUGCC,0.02
4,GGCAGAGGUCAACACAGCGUGGCAAAGUGGCUGUGCCUUGACUGCC,0.09
5,GGCAGGGCUCAACACAGCAUGGCCAAGUGGCUGUGGCUACACUUCC,0.03
6,GGCAGUGUUCAACACAGCGUGGCAAAGUGGCUUUGGCUAGACUGCC,0.11
7,GGCACAACUCAACACAGAGUAGCAAAGUGGCUGUGGCUAUACUGCC,0.09
8,GGCAGAGCUCAUCACAGAGUGGCAAAGUGGCUUUAGCCAGACUGCC,0.03
9,GGCUGAGCUCAACACAGCGUUGCAAAGUGGCUGUGGCUACACUGCC,0.2
10,GGCAGAUCUGAACACAGUGUGGCAAAGUAGCUGUGGCUAGACUGCC,0.02
11,GGUAGAGCUCAACAUAGCGUGGCAAAGUGGCUGUGGCUAGACUGCA,0.29
12,GGCAGAGCUCAACAUAACCUGGCAAAGUGACUGUGGGUAGACUGCC,0.03
13,GGCAGAGCUCAACACAGCGUGUCAAAGUGGCGGUGGCUAGACUGCG,0.1
14,GGGAGAGCUCAACACAGAGAGGCGAAGUGGCUGUGGCUAGACUGCC,0.02
15,GGCAGAGCUCCACACAGCGUGGCAACGUGGCUAUGGCUAGACUGCC,0.03
16,GGCAGAGCUCAACACAUCGUGGCAAAGUGGCUGCGGCUAGACUCCC,0.47
17,GGCAGAGCUCAACACAGCGUGGCAUACUGACUGAGGCUAGACUGCC,0.09
18,GGCAGAGCCCAACACAGCGAGGCAAAGUGGCUUUGGCUAGACUGCA,0.05
19,GGCCGAGGUUAACACAGCGCGGCAAAGUGGCUGUGGCUAGACUGAC,0.01
20,GGCAGAGCUCAACACAGCGUGGCAUAGUUACUGUGGCUAGACUGCC,0.99
21,GGCAGAGUUCCACAUAGCCUGGCAAAGUGGCUGUGGCUAGACUGCC,0.01
22,GGCAGAGCUCAAAACAGCGUUGCAAUGUGGCUGUGGCUAGACUGCC,0.22
23,GUCAGAGCUCAACAUAGCGUCCCAAAGUGGCUUUGGCUAGACUGCC,0.07

row,Variant,self-cleavage
1,GGCAGAGGUCAACACAGCGUGGCAAAGUGGCUGUGGCUAGCCUUUC,0.06
2,GGCAGACCUCAACGCAGCGUGGCAAAGUGGCUGUGGCUAGACUACC,0.12
3,GGCAGUGCUCAACACAGCGUGGCAAAGUGACUGUGGAUAGACUGCC,0.16
4,AGCAGAGCUCAACACAGCGUGGCAAAGUGGCAGUGGCUAGACCGCC,0.04
5,GGCAGUGCUAAACACAGCGUGUCAAAGUGGCUGUGGCUAGCCUGCC,0.06
6,GGCAGAUCUCAACACAGCGUGGCAAAGUGGCUGUUGCAAGCCUGCC,0.14
7,GUCAGAGCUCAACACAGCGUGGCAAAUUGGACGUGGCUAGACUGCC,0.05
8,GGCAGAUCUCAACACAGCGUGGCAAAGUGGCUGUGGCUAGACUGAA,0.19
9,UACAGACCUCAACACAGCGUAGCAAAGUGGCUGUCGCUAGACUACC,0.04
10,GGCAGAGCUCGACACAGCGUUGCAAAGUGGCUGUGCCUAGACUGCC,0.01
11,AACGGAGCUCAACACAGCGUGGCAAAGUGGCUGUGGCUAGACUACC,0.16
12,GUCAGAGCUCAACACAGCGUGGCACAGUGACUGUGGCUAGACUCCC,0.02
13,GGCAUAGCUAAACACAUCGUGGCAAAGUGGAUAUGGCUAGACUGCC,0.03
14,GGCAGAGCUCAACACAGCGUGGGAAAGUGGAUAUGGCUAGACUGCC,0.05
15,GGCAGGGAUCAACACAGCGUGGCAAAGUGGCUGUGGCCAGACUGCC,0.04
16,GUCCGUGGUCUACACAGCGUGGCAAAGUGGCUGUGGCUAGACUGCC,0.01
17,GGCAGCGCUUAUCACAGCGUUGCAAGGUGGCUGUAGCUAGACUGCC,0.02
18,GGCAGAGCUCAACACACCGUGCCAAUGUGGCUGUGGCUAGUCUGCC,0.04
19,GGCAGACCUCAAUACAGCGUCCCAAAGUGCCUGUGGCAAGACUGCC,0.03
20,GGGAGUGCUUAACACAGCGUGGCCAAGUGGCUGUGGCUAGACUGCC,0.03
21,GGCGGAGCUCAACACAGCGUGACGAAGUGGCUGUGCCUAAACUGCC,0.05
22,GGCAGAGCUCAACACAGCGUGGCAAAGUGGUUGUGGGUAGUCUGCC,0.04
23,GGCAUAGCUCAACACAGCUUGGCAAAGUGGCUGUGGCUAGAAUGCC,0.37

row,Variant,self-cleavage
1,GGAAGAGAUCAACACAGCGUAGCAAAGUGGCUGUGGCUAGACUGCC,2.39
2,GGAAGACCUUAACACAUCUGGGCAAAGUGGCUGUGGCUGGACUUCC,0.03
3,GGCAGAUCUGAACACAACGUGCCAAAGUGCCUGUGGCUAGACUGCA,0.02
4,GGAAGAGCUCACCACAGCGUGGCAAAGUGGCUGUGGCUAGACUUCC,0.03
5,GGCAGAGCUCAACUCAGCGUGGCACAGUGGCUGUGGCUAGACUGAC,0.08
6,GGCAGAGCUCAACAUAAAGUGGCAAAGUGGCUGUGGGCAGACUACC,0.04
7,GGGACAGCUCAACACAGCGUGGCAAAGUGGCUGUGGCUAGCCUGCC,0.21
8,CGCAGAGCUCAACACAGCGUGGCAAAGUGGCUGUGGCUUGACUGAG,0.03
9,GGCAGAGAUCAAUACAGCGCCGCAAAUUGGCUGUGGGUAGACUGCC,0.12
10,GGCAGAGCACAACACAGCGUGUCAAAGUAGCUGUGACUAGACUGCC,1.53
11,GGCAGAGCUUAACACUGCUUGGCAAAGUGGCUGUGGCUACACUGCC,0.02
12,GGCAUAGCUCAACUCAGCGUGGUAAAGUGGCUGUGGCUAGACUGCC,0.03
13,GGCAGAGCUCAAGACAGCGUGGCAAAGGGGCUGUGGCUAGACUGCU,0.03
14,GGCAGAGCUCAACACAGCGUGGCCAAGAGGCUGUGGCUAUAGUGCC,0.02
15,GGCAGAGCUCAACACUGCGUGGCAACGUGGCUGUGGUUAGACUGCC,0.04
16,GGCAGAUCUCAACACAGCGGCGCAAAGUGGCUGUGGCUAGACUGCC,0.27
17,GGCUGAGCUCAUAACAACGUGGCAAAGUGGCUGUGGCUGGACUGCC,0.02
18,GGCAGGGCUCAACACAUCGUGGCAAUGUGGCUGUGGCUAGACUGCC,0.06
19,UGUAGAGCUCAACACAGCAUGGCAAAGUGGCUGUGGCUCGACUGCC,0.14
20,GGCACAGCUCAACACAGCGUAGCUAAGUGGCUGUAGAUAGACUGCC,0.04
21,GGCAGAGCUCAAGACAGCGUGGCAAAGUGGCUGUGGCUAUACGGCC,0.02
22,GGCAGAGCUCAACACAGCGUGGCAAACUGGAUGUGGCUACACUGCC,0.02
23,GGCAGAGCUCAACACAGCGCGGCAAAGUGGCUGUAGCUAGACUGUC,0.2

row,Variant,self-cleavage
1,GGCAGAGCUCAACACAGCGGGGCUAAGUGGCAGUGGCUAGACUGCC,0.06
2,GGCAGAUCUCAACACAGCGUCGCAAACUGGCUCUGGCUAGACUGCC,0.02
3,GGCAGAGCUCAACUCAGGGUGGCAAAGUGGCUGUGGAAAGAAUUGC,0.02
4,UUCAGAGCUCAACACAGAGUGGGAACGUGGCUGUGGCUAGACUGCC,0.07
5,GGCAGAGCUCAACACAGCUUGGCAAAGUGGCUGUGGCUAGAGUUCC,0.01
6,GGCAUAGCUCAGCACUGCGAGGCAAAGUGGUUUUGGCUAGACUGCC,0.02
7,GGAAGAGCUCAACAGAGCUUGGCAAGGUGGCUGUGGCUAGUCUGCC,0.04
8,GCCAGAGCUCACCACAGAGUGGCACAGUGGCUGUGGCUAGACUGCC,0.03
9,GGCAGAGCUCAACACAGCGUGGCAAAGUGGCUGUGGCUAGGUUGCG,0.02
10,GGCAAAGCUUAACACAGCGUGGCAAAGUGGCUAUGGCUAGACUGCC,0.03
11,GGCAGAUCUCAGCACAGCGUGGAAAAGUGGCUGUAGCUAGACUGCC,0.01
12,GGCAGAGCUCAACACAGAGUGGCAAUGUGGCUGUGGCUAGACUACC,0.04
13,GCGAGAGCUCAACACAGCUUCGCAAAGUGUCAGUGGCUAGACUGCC,0.04
14,GACAGAGCUCAACACAGCGUGGGAAUGUGGCUGUGGCUAGACUGCC,0.69
15,GGCAGAGUUCAACACUGCGUGGGGAUAUGGCUGUGGCUAGACUGCC,0.02
16,GGCAGAGCUCAAGACAGCGUCGCAACGUGGCUGUGGCGAGACUGCC,0.01
17,GGCAGAACUCAACACAGCGUGGUAAAGUGGCUGUGGCUAGACGGGC,0.02
18,GGCCGAGCUCAACACAGCGUGGCCAAGUGGCUGUGGCUAUACUGCC,0.05
19,GGCAUAGCUCAACGCAGCGUGGCAAUGUGUGUGUAGCUAGUCUGCC,0
20,UGCAGAGCUCUACGCAGCGUGGCAAAGUGGCUGUGGCUAGACUGCC,0.04
21,GGCAGAGCUCAACACAGCGUGGCAAAGUGGCCGUGGCUAGAGUGAC,0.09
22,GGUAGAGCUCAACACAGUGUGGCAAAGUGGCUGUUGCUAGACUGCC,0.07
23,GGCAGAGCUAAACACAGCGUGGCAAAGUGGCUUUGGCUAGACUGUC,0.05

row,Variant,self-cleavage
1,GGCACAGCUCAACACUGCGUGGCAAAGUGGCUGUGGCUAGACUGUC,0.03
2,GGCAGAGUACAACACAGCGUGGCAAAGUGGGAGAGGCUAGACUGCC,0.23
3,GGCAGAGCUCAACACAGCGUGGAAAAGUGGCUGUGGCUAGAGUGUC,0.03
4,GGUAGAGCUCAGCACAGCGUGACAUAGUGGCUGUGGCUAGACUGCC,0.05
5,GGCAUAGCUAAACACAACGUGGAAAAGUGGCAGUGGCUAGACUGCC,0
6,GGCAGAGCUCAACACAGCGGGGCAAAGUGGCUGUUGAUAGACUGCC,0.08
7,GGCAGAGAUCAACACAGCGUGGCAAAGUGGCUGUGCCGAGACUACC,0.93
8,GGCAGAGCUCAACACAGCGUGGCAAAGUGGGUGUAGGUAGACUGCC,0.04
9,GGUAGAGGUCAACACAGCGUGGCAAAGUGGCUGUAGCUAGACUGCC,0.12
10,GGCAGAGCUCCACACAGCGUGGCAAAUUGUCUCUGGUUAGACUGCC,0.04
11,GGCAGAGCUCAACACAGCUUGGUAAUGUGGCUGUGGCUGGACUGCC,0.04
12,GGCAGAGCUCAACAAAGCGUGGCAAAGUGGCUUUGGCAAGACUCCC,0.02
13,GGCAGAGGUCAACACAGCGUGGCAAAAUGGCUGUGGCUAGAUUGCC,0.03
14,CGCAGUGCUCAACACAGCGUGGCAAAGUGGCGGCGGCUAGAAUGCC,0.01
15,GGCAGACCUUAACACAGCGGGGCAAAGCGGCUGUGGCUAGACUGCC,0.02
16,GGCAGAGCUCAACACAGGGUGGCAGAGAGGCAGUGGCUAGACUGCC,0.06
17,GACAGAGCUCAACGCAUCGUGGCAAAGUGGCUGUGGCUAGACUGCC,0.29
18,GGCAGAGCUCAACACCGCGUGGCACAGUGGCAGUGGCUAGAAUGCC,0
19,GGCAGAGUUCGACACAGCGUGGCGAGGUGGCUGUGGCUAGACUGCC,0.01
20,GGCAGAGCUCAAAACACCGUGGCAAAGUGGCUCUGGCUAGACUGCG,0.02
